# Assay results as given in ChEMBL document CHEMBL4888484, “Replenishing the malaria drug discovery pipeline: Screening and hit evaluation of the MMV Hit Generation Library 1 (HGL1) against asexual blood stage Plasmodium falciparum ,using a nano luciferase reporter read-out” (2022).
# About 540 (0.36%) of roughly 150,000 compounds showed an effect of 50% or more. The list shows a part of the results.
# System: Plasmodium falciparum
# Test: Primary screen in NF54 nanoGlo assay, in single point, at 2uM, 72h; a lower Z score goes with more inhibition
# Assay type: functional, Erythrocyte
# Settings: timepoint 72 hour
Compound,% Inhibition [%],Z score
CC(NC(CC1CCC1)c1ccccc1)c1cn(C)nn1 (stereo not drawn),6,-0.82
CC1(C2CCN(C(=O)Nc3cn[nH]c3)CC2)OCCO1,-4,0.57
COC(C)(C)[C@]12CC(O)(C(C)C)ON1[C@H]1CCCCC1N2O (stereo partly drawn),-15,2.28
Cn1cc(-c2ccc3c(n2)N(C(=O)c2ccccc2S(C)(=O)=O)CCC3)cn1,-6,0.65
CCCCS(=O)(=O)N1CC2(CCCCC2)C[C@@H]1COCc1ccccc1,-13,2.24
Cn1c(-c2ccc(Br)cc2)c(C2c3ccccc3C(=O)N2CC2CCCO2)c2ccccc21 (stereo not drawn),6,-0.8
O=C(NC1CCCC1Oc1ccccc1)c1ccoc1 (stereo not drawn),-4,0.56
CCOC(=O)C1CCN(c2ncc(S(=O)(=O)c3cc(Cl)ccc3OC)c(N)n2)CC1,-1,0.13
Cc1cccc(N(C)C(=O)c2sc(NC(=O)c3ccccc3Cl)cc2C)n1,-10,1.11
CCCCn1c(NC(=O)c2ccccc2Cl)c(S(=O)(=O)c2ccccc2)c2nc3ccccc3nc21,-7,0.7
CC(=O)NCCOc1ccc(Br)cc1,-6,0.73
O=C(NCc1ccccn1)c1cc(-c2cccc(Cl)c2)[nH]n1,2,-0.26
COCCNC(=O)C[C@H](c1c[nH]c2ccccc12)C1CCCCC1,-3,0.49
CC(C)Cn1cc(C(F)F)c(C(=O)N2CCC[C@H]2c2ccncc2)n1,2,-0.2
Cc1ccccc1CN1CCCN(C(=O)Cn2cnccc2=O)CC1,-15,2.44
CCOc1ccccc1NC(=O)N1CCC[C@H]1c1nc(C(C)C)no1,-2,0.3
O=C1[C@@H]2CCCN2c2ccc(S(=O)(=O)N3CCOCC3)cc2N1Cc1ccccc1F,-8,1.16
CCCn1cc(C(=O)N2CCCCc3cc(OC)ccc32)cn1,-3,0.4
O=C(NCc1cccs1)N[C@H]1CC[C@H](Oc2ncccn2)CC1,-17,2.93
Nc1ccnc(N2CC(c3ccccn3)C2)n1,-2,0.3
CC(=O)N1CCO[C@@H](CNc2cnsn2)C1,1,-0.17
O=C(c1ccc(-n2cnnc2)nc1)N(Cc1ccc2c(c1)OCO2)C1CC1,-13,1.71
CO[C@@]12CC[C@H](OCC3CC3)C[C@@H]1N(C(=O)c1nn(C)cc1Cl)CC2,4,-0.61
CCNCC(=O)NCc1ccc(Cl)cc1,2,-0.44
O=C(c1ccsc1)N1CC(Oc2nccs2)C1,-25,4.22
CNC(=O)C[C@H](C)Nc1ccc(C)cc1C,-6,0.81
Cn1nc(-c2cnccn2)cc1CNS(C)(=O)=O,23,-2.87

Compound,% Inhibition [%],Z score
O=S(=O)(c1cccc(N[C@@H]2COC3(CCC3)C2)c1)N1CCC(O)CC1,-9,1.42
Cn1cnn(CC(=O)N[C@H]2CC23CCOCC3)c1=O,-15,1.55
Cn1c(CNC(=O)[C@@H]2CCCc3nccn32)nc2cccc(Cl)c21,11,-1.44
CCC(C)C(NC(=O)c1ccc(Cl)cc1)C(=O)OCc1nccn1CC(F)(F)F (stereo not drawn),2,-0.21
c1ccc2c(c1)CCN(c1ncnc3c1nc1n3CCCCC1)C2,1,-0.16
CCc1noc(C)c1NC(=O)[C@H]1CCc2[nH]nc(C(F)(F)F)c2C1,-10,1.22
CC1CCCCC1CC(=O)N1CC2(CCOCC2)CCC1CO (stereo not drawn),9,-1.17
Cc1noc(C)c1C(=O)NCc1csc(N2CCOCC2)n1,-16,1.59
CN(C)C(=O)c1cccnc1O[C@H]1CCN(S(=O)(=O)c2ccc3c(c2)CCC3)C1,-7,1.06
Cc1c(Cl)ccc2ccc(N3CCC[C@H](c4nncn4C)C3)nc12,-3,0.49
Cc1nc(CNC[C@@H](C(C)C)N2CCCC2)n(C)c1C,-9,1.57
N#C[C@H]1CCCN(C(=O)Nc2ccc(CCc3ccccn3)cc2)C1,-13,2.11
CC(C)C(=O)Nc1ccc([C@H](C(=O)O)N(C)Cc2ccon2)cc1,-5,0.77
CC1(C)[C@H](C(=O)Nc2ccc(Cl)c(Cl)c2)CC[C@]1(C)C(=O)O,2,-0.31
O=C(c1cn(C2CCN(S(=O)(=O)c3ccccc3Cl)CC2)nn1)N1CCCCC1,-10,1.06
CCCc1csc(NC(=O)N(C)Cc2cc(C)on2)n1,-2,0.27
CCCc1nn(-c2ccc(Cl)cc2)c(=O)n1CC(=O)N1CCNC(=O)C1,-15,2.98
CCS(=O)(=O)c1cc(OC)ccc1C#N,-4,0.53
CCN1CCN(c2cccc(NC(=O)c3cc(F)cc4c(=O)c5cc(F)ccc5[nH]c34)c2)CC1,95,-17.54
Cc1nnc(NCc2cccnc2N2CCOCC2)c(C#N)c1C,-2,0.24
Cc1noc([C@H](C)S(=O)(=O)Cc2cc(C)on2)n1,35,-0.8
COc1ccccc1C1(CNC(=O)NC2CCCCC2)CCOCC1,1,-0.13
CN1CCN(C[C@@H]2CN(C(=O)Cc3ccc(Cl)cc3)C[C@@H]2CO)CC1,-12,2.04
COc1cccc(N2C(=O)CN(CCC(C)C)[C@H]3CS(=O)(=O)C[C@H]32)c1,5,-0.71
O=C(c1ccc2nsnc2c1)N1CC[C@H](Oc2cnsn2)C1,-12,2.3
CCC[C@H]1CN(Cc2cccc(-c3ccco3)c2)C[C@@H]1NS(C)(=O)=O,-7,1.34
O=C(Nc1cc(-c2ccccn2)no1)c1cccs1,3,-0.31
